About 2,600 (0.72%) of roughly 360,000 compounds were called active. This list was built around the results that the source calls inconclusive (neither active nor inactive); the mix of calls is not that of the screen. Calls follow the shape of the dose curve; as a rule, active = well fitted inhibition curve with a large enough effect; inconclusive = small, poorly fitted or top-dose-only effect; inactive = no such curve, though single readings can be large or run the other way. Potencies beside an inconclusive call are fits to weak or partial responses and may not hold up.
Test: Primary qHTS for Inhibitors of ATXN expression; also: nearly all actives have a fitted effect of over 55% in size
Conditions: HEK-293 ATXN2-luciferase reporter, luminescence, 24 h; activity change, negative = inhibition: at 57 µM (top of the series)
How it was run: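 qHTS (up to 57 uM final) was run with 24 h compound exposure of reporter cells at 37 °C. Each well was multiplexed: SteadyGlo luminescence measured ATXN2-luciferase expression after a fluorogenic Gly-Phe-AFC viability readout (25 uM final).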
% is scaled to controls: 0 for no effect and ±100 for the full control effect; potency is read from the fitted curve at half-maximal effect; tags tell the direction and shape of the fitted curve.

Potency, inconclusive:
CC1Nc2ncnc(N3CCN(c4ccccc4)CC3)c2N(Cc2ccc(Br)cc2)C1=O (configuration not stated) 31.6 µM [inhibitor, single point]
CCCn1c(SCC(=O)N2CC(=O)Nc3ccccc32)nc2ccccc21 0.752 µM [inhibitor, partial curve, poor fit]
O=C(NO)c1ccccc1 14.1 µM [inhibitor, partial curve, poor fit]
CCOc1cc(/C=N\NC(=O)Cc2ccccc2)ccc1OCC(=O)Nc1ccc(C)c(C)c1 28.2 µM [inhibitor, single point]
Cc1ccc(-c2nc3ncccc3o2)cc1NC(=O)COc1ccc(C(C)C)cc1 39.8 µM [inhibitor, single point]
O=C(Nc1ccc2ccccc2c1)Nc1ccc2snnc2c1 39.8 µM [inhibitor, single point]
COc1ccc(N(CC(=O)N2CCN(c3ccc(Cl)cc3)CC2)S(=O)(=O)c2c(C)noc2C)cc1 3.55 µM [inhibitor, partial curve, poor fit]
CCOC(=O)c1cc(-c2ccc(F)cc2)n(CCC(=O)NC2CCN(Cc3ccccc3)CC2)c1C 39.8 µM [inhibitor, single point]
COc1ccc(CCNC(=O)CCc2c(C)nc3cc(-c4ccccc4)nn3c2C)cc1OC 10 µM [inhibitor, partial curve]
O=C1N[C@@H](c2ccccc2)COC(=O)[C@H](Cc2ccc(F)cc2)CC/C=C/C[C@@H]1CC(=O)N(CCO)Cc1ccccc1 14.1 µM [inhibitor, partial curve]
COC(=O)c1sc(-c2ccc(Cl)cc2)cc1NC(=O)/C=C/C(=O)O 28.2 µM [inhibitor, single point]
CC(C)Oc1ccc(C(=O)N[C@H](CNC(=O)CN(C)C)Cc2ccc(-c3cn4cccc([C@H](C)O)c4n3)cc2)cc1Cl 1.22 µM [inhibitor, partial curve]
CC1=C(C(=O)Nc2cc(C(=O)N3CCN(c4cccc(C)c4C)CC3)ccc2C)SCCO1 28.2 µM [inhibitor, partial curve]
C/C(=N\NC(=O)c1cc(C)nc2ccccc12)c1ccccn1 1.26 µM [inhibitor, full curve, poor fit]
CN(C)c1nc(=NCc2cccs2)ss1 31.6 µM [inhibitor, single point]
C=CCC[C@H](Cc1ccc(F)cc1)C(=O)OC[C@@H](Cc1c[nH]c2ccccc12)NC(=O)[C@H](CC=C)CC(=O)NCCO 39.8 µM [inhibitor, single point]
CC(Oc1ccc(Cl)cc1)C(=O)NCCN1C(=O)S/C(=C\c2cccnc2)C1=O (configuration not stated) 31.6 µM [inhibitor, partial curve, poor fit]
Cc1ccc(NC(=O)CC2C(=O)N(Cc3ccccc3)C(=S)N2NC(=O)c2cccc(F)c2)c(C)c1 (configuration not stated) 25.1 µM [inhibitor, partial curve, poor fit]
Cc1ccc2[nH]cc(C(c3ccccc3)c3cccs3)c2c1 (configuration not stated) 39.8 µM [inhibitor, single point]
c1ccc(C[C@H]2CN=C(Nc3ccccc3)N2CCCC2CCCC2)cc1 17.8 µM [inhibitor, partial curve]
C#CCOCCOCCOCCNc1nc(N2CCN(C(=O)CCCCCCCCCCNC(=O)[C@H]([C@@H](C)CC)n3cc(CCCCCN)nn3)CC2)nc(N2CCN(C(=O)CCCCCCCCCCNC(=O)[C@H](CCCCN)n3cc(CCCC(=O)O)nn3)CC2)n1 35.5 µM [inhibitor, partial curve, poor fit]
CC/C(=C\C1CCCCC1)C(NP(=O)(c1ccccc1)c1ccccc1)c1ccccc1 (configuration not stated) 39.8 µM [inhibitor, single point]
COc1ccccc1CNc1nc(NCc2ccccc2)nc2ccsc12 25.1 µM [inhibitor, partial curve]
COc1ccc(/C=C/C(=O)OCC(=O)c2ccc3c(c2)NC(=O)CO3)cc1 3.55 µM [inhibitor, partial curve, poor fit]

Potency, active:
O=S(=O)(Nc1cccc2ncccc12)c1cccs1 3.16 µM
COc1ccc(OC)c(CCNC(=O)c2cc3c(-c4ccccc4F)nn(C)c3s2)c1 25.1 µM
Cc1cccnc1C(c1ccc(F)cc1)N(C)C(=O)C1CCN(CCOc2ccc(Cl)cc2Cl)CC1 (configuration not stated) 31.6 µM

Activity change, negative = inhibition, inactive:
CCOC(=O)COc1cccc2c(=O)n(CC(N)=O)ccc12 -2.25%
COc1ccc(NC(=O)NCCCCc2ccccc2)c(OC)c1 6.73%
Fc1ccc(NC(=S)NCc2cccs2)cc1 -6.1%
O=C(O)c1cc2cccc(S(=O)(=O)N3CCCCC3)c2cc1O 11%
CN(CCc1ccccn1)Cc1ccc(Cl)cc1Cl 25.5%
Cc1ccc(S(=O)(=O)/N=C(/Nc2ccc([N+](=O)[O-])cc2)c2ccccc2)cc1 -10%
CCC(=O)N1CCc2cc(Br)cc(S(=O)(=O)NCCc3ccccc3Cl)c21 -36.2%
O=C(CSc1nc(-c2ccccc2)c(-c2ccccc2)[nH]1)NCc1ccco1 -24.8%
CC(C)N(CCNC(=O)c1ccc(CS(=O)(=O)c2c(Cl)cccc2Cl)o1)Cc1ccccc1 -16.8%
O=C(Cn1c(-c2cccs2)cc2cc(Cl)ccc21)NCc1ccccc1 -10.6%
COc1ccc(CNn2c(-c3ccccc3F)nc3ccccc3c2=O)cc1OC -31.8%
Cc1ccc(C)c(S(=O)(=O)N2CCCCC2CCNC(=O)C(=O)NCCc2ccco2)c1 (configuration not stated) -25.2%
Cc1cc(OC(C)C(=O)NCc2ccccn2)c2c(C)c(C)c(=O)oc2c1 (configuration not stated) 4.11%
CCCCCCCCNS(=O)(=O)CCNCc1ccco1 -3.15%
CN(CCO)c1ccc(C=NNc2ccc([N+](=O)[O-])cc2S(=O)(=O)Nc2ccccc2C(=O)O)cc1 -6.48%
